The BET-seq Pho4 binding data (Le et al. 2018)
This is one part of the list. Values were computed here from the reads of four pooled replicates and scatter widely.

Each sequence was assayed against T1, Pho4 (S. cerevisiae) (UniProt P07270) (assay: relative binding free energy (BET-seq); higher = weaker binding). Conditions: reference: library average.
T1 sequence: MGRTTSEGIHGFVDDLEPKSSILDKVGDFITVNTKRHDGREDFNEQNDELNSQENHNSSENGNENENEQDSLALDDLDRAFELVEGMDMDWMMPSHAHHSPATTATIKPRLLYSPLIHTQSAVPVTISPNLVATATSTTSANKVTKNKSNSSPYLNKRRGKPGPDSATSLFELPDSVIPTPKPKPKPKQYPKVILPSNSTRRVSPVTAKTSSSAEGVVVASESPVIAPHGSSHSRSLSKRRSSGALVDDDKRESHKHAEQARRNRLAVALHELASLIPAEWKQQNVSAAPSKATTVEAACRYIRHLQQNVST

Sequence	relative binding free energy [kcal/mol]
GTTGCCACGTGAGTGA	0.22
CTGGGCACGTGAAGTT	0.26
TGGAGCACGTGTATAA	-0.07
AATTGCACGTGGGGGC	-0.22
TGGCACACGTGTTAGG	-0.01
GTTATCACGTGGATGG	0.1
TGGCTCACGTGTATGT	0.18
GGGGACACGTGAGTTT	0.31
CATGTCACGTGGTCGG	-0.07
GGCGGCACGTGGTTTC	0.03
GATGACACGTGATTGT	0.17
GAGGTCACGTGGAATT	0.42
TTGGTCACGTGTGTTT	0.2
TTAGTCACGTGCGAGG	0.12
GGCGGCACGTGTGTAA	0.03
AAGTACACGTGAGGGG	0.31
TATAGCACGTGATGAG	-0.13
TAGTGCACGTGCGGGC	-0.21
TGGGACACGTGATAAG	0.21
AAAATCACGTGGGTAT	0.07
GCTTGCACGTGGGGCA	-0.15
GGTTGCACGTGTGCGC	-0.01
AAGGGCACGTGCGGTG	-0.24
GCTGTCACGTGGCGGT	-0.03
GTTTTCACGTGCGGAT	0.39
TGTCACACGTGATGGG	0.18

Sequence	relative binding free energy [kcal/mol]
AATGTCACGTGAATGG	0.35
ATTGTCACGTGGGCTA	-0.12
GTGTTCACGTGTATGT	0.29
GGTCTCACGTGTAGGG	0.21
TATGACACGTGTACGA	0.21
TTAATCACGTGATAGT	0.29
GTTGACACGTGGGTGT	-0.09
AAATTCACGTGTGATA	0.26
ATGTGCACGTGGGTCG	-0.19
TATATCACGTGAAGTG	0.26
TGTTGCACGTGGTGAC	-0.05
AAGTCCACGTGGGTAT	0
CTCGGCACGTGTGCGT	-0.09
TACATCACGTGTTGAG	0.22
TTGGGCACGTGTTATA	0.01
AGGCGCACGTGCGGAG	-0.13
GTGCGCACGTGCCGTG	-0.06
TTCAACACGTGGGAGG	-0.03
AGTGGCACGTGTGTTT	0.01
AGTGACACGTGGTCGT	-0.1
AGGACCACGTGTAGGG	-0.07
AGAAGCACGTGTAGTA	-0.01
TGTCACACGTGTCGTG	0
AAGGTCACGTGTCGCT	0.15
CTGTGCACGTGTGAGT	0.03
TAGGCCACGTGTAAGG	0.04

Sequence	relative binding free energy [kcal/mol]
TGTCCCACGTGTTGTG	0
TAGGGCACGTGTCGGT	-0.12
AGGAGCACGTGGTATA	-0.12
GAGGTCACGTGCGTAT	0.07
AGGGACACGTGTGTGC	0.02
CAGTTCACGTGGGAGG	0.23
TGAGGCACGTGCGGGC	-0.27
GTTATCACGTGAGTGC	0.24
GGGTCCACGTGGCGGG	-0.06
ATTGGCACGTGGACTG	-0.17
TACGCCACGTGGTGTG	-0.14
GAGATCACGTGGTGTA	0.17
CTTTTCACGTGGAGTC	0.38
GGTCTCACGTGGCGGG	0.22
TTTAACACGTGTTAAT	0
ATATTCACGTGTGGGA	0.12
TGGTTCACGTGGGCTG	0.23
TGCTTCACGTGGGTTA	0.2
GGGCGCACGTGGGAAT	-0.03
AGAGTCACGTGTTACG	0.15
TAGGGCACGTGGGGCC	-0.22
TATGGCACGTGCTGAT	-0.13
ATATTCACGTGGCTAT	0.18
TATTGCACGTGGGAAT	-0.1
AGTTGCACGTGTTTCA	-0.02
TGCTCCACGTGTTGTT	-0.07

Sequence	relative binding free energy [kcal/mol]
ATTATCACGTGTGTGT	0.2
GCCGGCACGTGGCGGG	-0.15
TGCTGCACGTGTTGGT	-0.01
TTATTCACGTGCGAGA	0.34
GTATTCACGTGTTTAC	0.24
AATTTCACGTGGCCGT	0.35
ATTGTCACGTGAGGGC	0.18
TAGTTCACGTGAAGGA	0.52
GGAATCACGTGCGTAG	0.18
TTTGACACGTGGGCGT	-0.09
ATGGGCACGTGTGTGA	-0.07
CTGTGCACGTGGTACG	-0.14
GAGATCACGTGTTTTT	0.26
TAAGGCACGTGCGGGC	-0.05
GGCAGCACGTGTTTTG	0.05
CGTTTCACGTGTTTGG	0.14
TCGGTCACGTGTAGAA	0.2
TGTCGCACGTGTGAGT	-0.07
TATTACACGTGGTGTT	0.02
GCGCTCACGTGGGTGT	0.1
AAGATCACGTGGGGCT	0.02
CTGATCACGTGGATGG	0.14
AGGTTCACGTGGGGTA	0.15
TGGCTCACGTGCGGTG	0.24
AGGGTCACGTGCGAGT	0.03
TTTTCCACGTGGTTAG	0.07

Sequence	relative binding free energy [kcal/mol]
TACTACACGTGGTGGT	0.08
TAGGCCACGTGCGTTG	-0.16
TTAAGCACGTGATGCT	0.14
AAGGACACGTGGGTTA	-0.02
CTATGCACGTGAGGGT	0.06
CAGTGCACGTGGTCTT	0.11
GGGGTCACGTGGTGGC	0.12
AGGCCCACGTGAGGTG	0.15
GCGGGCACGTGGAAGT	0.01
TTTGGCACGTGTTAGG	-0.09
AGATTCACGTGGTAGT	0.28
CTGGACACGTGTGGAT	0.03
AGCTGCACGTGGTTAG	-0.17
AAAATCACGTGGTTAT	0.14
TGTGGCACGTGTCATG	0.04
GTGTACACGTGTTAGC	0.03
TGAATCACGTGTATTG	0.1
GGTGACACGTGTTGCG	0.18
GAATGCACGTGCTGGT	-0.02
TATTGCACGTGGGTAG	-0.12
GGGGACACGTGGGAGG	-0.06
CTTAACACGTGGTGGG	-0.14
GTTTCCACGTGTTCGT	0.19
TAACGCACGTGGGTGC	-0.11
AGCGACACGTGGTATG	0.03
GGGAACACGTGGGTGA	-0.05

Sequence	relative binding free energy [kcal/mol]
CAGGGCACGTGTCGGA	0.03
ATTTTCACGTGCTCGT	0.17
TTGGTCACGTGCAAAT	0.22
GAATGCACGTGTGAGG	0.07
TTAATCACGTGAAAGT	0.3
GGCTGCACGTGGTGCA	-0.07
ACGGGCACGTGGTAGG	-0.13
GGCTACACGTGGTTGG	0.06
GTTGACACGTGCGTTA	-0.06
CGGTTCACGTGCTTTT	0.37
CCTTTCACGTGGATGT	0.38
TTCATCACGTGGAGGG	0.1
TGAGACACGTGAGATA	0.28
AATGTCACGTGTATGG	0.03
CTAAGCACGTGGGCTT	-0.1
TGTGTCACGTGGTTTT	0.11
TGGCGCACGTGGTTTG	-0.1
GCACTCACGTGGGGGG	-0.02
TAGTCCACGTGGTGGG	0
TGTAACACGTGGCGTA	-0.13
TAGGACACGTGAGAGG	0.35
TGTGGCACGTGTCGTC	-0.13
CTGCACACGTGGGTGG	-0.15
TGTATCACGTGGGCCG	-0.08
TAAAGCACGTGCATGG	-0.12
AATCGCACGTGGGGTA	-0.19

Sequence	relative binding free energy [kcal/mol]
TTTGCCACGTGTGGAT	-0.02
TGGAACACGTGTGGGA	0.05
CAATTCACGTGTGAGG	0.26
GTCAGCACGTGATTTT	0.23
GCGGACACGTGAGGGG	0.31
GTGGTCACGTGCCGTT	0.1
GTCTTCACGTGGTAAG	0.31
CGGATCACGTGGGGGC	0.07
ATTTACACGTGAGTGC	0.31
ATATTCACGTGAAGGC	0.46
GTGTGCACGTGAAGTC	0.27
TTGGACACGTGTTTGG	0.04
AGGGGCACGTGCTTGG	-0.15
TCGGGCACGTGTAAAT	0.17
AGTATCACGTGGTACT	0.04
GTCGTCACGTGATTTA	0.25
TTACGCACGTGGAGGG	-0.23
CTTAGCACGTGGGTCG	-0.17
ATTGACACGTGGGAAA	-0.03
GTGTACACGTGTGGCA	0.09
TGCAACACGTGGGAGG	-0.14
TCTTGCACGTGTGTCT	-0.11
ATAACCACGTGAGGTT	0.35
TGCTTCACGTGTTTAA	0.22
CTGCACACGTGGTGGG	-0.16
AGGGACACGTGTCGGG	-0.04

Sequence	relative binding free energy [kcal/mol]
GTTGGCACGTGTGTGG	0.06
TAGGACACGTGTAGAT	0.19
AGGCACACGTGCGGGT	-0.08
AAAGGCACGTGGCGTA	-0.27
CGCGTCACGTGGTGGT	0.03
GTGCACACGTGATGAG	0.34
GGGGCCACGTGTTGGA	0.07
GGAATCACGTGTGGGC	0.14
AGTTCCACGTGGCGTT	0.01
TGTTGCACGTGCGGGG	-0.04
GTGCTCACGTGGGGCG	-0.05
CGAATCACGTGTTAGT	0.18
AAAGCCACGTGTGGTT	0
AATTTCACGTGGGTTA	0.18
GTGTTCACGTGAGTAA	0.42
TGGAGCACGTGGTGGG	-0.08
GTTTGCACGTGGAGTC	-0.07
TGTCGCACGTGTCAGG	-0.02
ATATTCACGTGAGTGC	0.34
CTGGTCACGTGTAGCG	0.06
GGTGGCACGTGTTTGA	-0.06
AGTCGCACGTGGAGAG	0
CTTTTCACGTGAGTGA	0.24
GAAACCACGTGGTGGG	-0.03
TAATTCACGTGGTGTC	0.2
CTGGGCACGTGAGTTG	0.12

Sequence	relative binding free energy [kcal/mol]
TGGTGCACGTGTTAGG	-0.08
GATGGCACGTGTGTTC	0.11
TGGTTCACGTGCTCTG	0.37
AAATTCACGTGGGTGA	0.02
TAAATCACGTGATCGG	0.29
TACTGCACGTGTGTAT	0.17
ATAATCACGTGGGGCG	-0.01
TCTTTCACGTGGGGGG	0.15
GTGGGCACGTGCTCTT	-0.15
CTAGGCACGTGTCGGT	0.04
TATGGCACGTGTGTCG	-0.02
TGTAGCACGTGGGTCT	-0.26
TCGGACACGTGGGGTG	-0.03
GAGGTCACGTGGTTGG	0.18
GGTCACACGTGCGTTG	0.03
GAGGTCACGTGTTAAT	0.18
GTGTGCACGTGCGGGA	-0.06
AAGGTCACGTGGGAGA	-0.02
TGTTCCACGTGATTTA	0.22
ATGGTCACGTGTAGAA	0.21
ATTATCACGTGAGGCT	0.25
TCTTACACGTGATAGT	0.32
